According to PubChem BioAssay AID1347430 (National Center for Advancing Translational Sciences (NCATS), 2020):
In all, about 91,000 compounds went through this assay and about 130 (0.14%) were called active. This list was built around the results that the source calls inconclusive (neither active nor inactive); the mix of calls is not that of the screen. Calls follow the shape of the dose curve; as a rule, active = well fitted inhibition curve with a large enough effect; inconclusive = small, poorly fitted or top-dose-only effect; inactive = flat fitted curve, though single readings scatter. Potencies of inconclusive entries are doubtful fits and often do not repeat.

tested on: Uracil-DNA glycosylase; test: Primary qHTS assay for inhibitors of Activation Induced Cytidine Deaminase (AID): UDG Counterscreen signal; settings: FRET deamination/UDG coupled assay, UDG read, 4 h; series mostly up to 115 µM; also: nearly all actives have a fitted effect of over 65% in size
Potency is read from the fitted curve at half-maximal effect; tags tell the direction and shape of the fitted curve.

SMILES | Potency
COc1ccc(S(=O)(=O)c2cn(CC(=O)Nc3ccc(C)c(F)c3)c3nc(C)ccc3c2=O)cc1 | inactive
C=CCc1ccccc1OCCn1c(C2CC(=O)N(Cc3ccc(F)cc3)C2)nc2ccccc21 (stereo not given) | inconclusive: 89.1 µM [inhibitor, partial curve, poor fit]
Cc1[nH]c2ccc(Cl)cc2c1CCN(Cc1cccs1)C(=S)NC(C)(C)C | inactive
CC(Sc1nc(C(F)(F)F)nc2ccccc12)C(=O)NCC1CCCCC1 (stereo not given) | inactive
COc1cccc(NC(=O)CSc2nccn2Cc2ccc3c(c2)OCO3)c1 | inconclusive: 100 µM [inhibitor, single point]
Cc1c(Cl)cccc1-c1ccc(C(=O)Nc2ccc(F)cc2)o1 | inconclusive: 89.1 µM [inhibitor, single point]
CCOc1c(Br)cc(C(=O)Oc2cccc(F)c2)cc1OC | inactive
CCc1ccc(-n2nc(C)c3c(C)cc(=O)n(CC(=O)N4CCCc5ccccc54)c32)cc1 | inconclusive: 89.1 µM [inhibitor, single point]
CCOC(=O)c1ccc(NC(=O)Nc2c[nH]c(=O)[nH]c2=O)cc1 | inconclusive: 89.1 µM [inhibitor, single point]
CCc1ccc(OC(C)C(=O)N2CCC(c3nc4ccccc4s3)CC2)cc1 (stereo not given) | inconclusive: 2.82 µM [inhibitor, partial curve, poor fit]
CSc1ccccc1NC(=O)c1ccccc1SC | inactive
COc1ccc(S(=O)(=O)N(CCc2ccccc2)CC(=O)Nc2ccc(C)c(C)c2)cc1OC | inconclusive: 89.1 µM [inhibitor, partial curve, poor fit]
O=S(=O)(Nc1ccc(-c2ccc(N3CCCC3)nn2)cc1)c1ccc(Cl)cc1 | inconclusive: 89.1 µM [inhibitor, single point]
ClCC(Cl)C[n+]1cccc2ccccc21 (stereo not given) | inactive
COC(=O)c1c(NC(=O)CCCOc2ccc(C(C)(C)C)cc2)sc2c1CCC(C)C2 (stereo not given) | inconclusive: 100 µM [inhibitor, partial curve, poor fit]
Cc1cc(C)n(-c2nc3ccccc3nc2N2CCN(S(=O)(=O)c3ccc4ccccc4c3)CC2)n1 | active: 89.1 µM
CN(C)C(=O)COC(=O)CCc1c[nH]c2ccccc12 | inactive
Cc1ccc(N2CC(c3nc4ccccc4n3CCC3CCCCC3)CC2=O)cc1 (stereo not given) | inconclusive: 89.1 µM [inhibitor, single point]
COCC(=O)N1CCN(c2oc(-c3ccc(C)cc3)nc2S(=O)(=O)c2ccc(F)cc2)CC1 | inactive
CCCCC(=O)Nc1oc2c(C)cccc2c(=O)c1-c1ccccc1 | active: 79.4 µM
CC(=O)N(Cc1cccnc1)c1nc2c(C)c(C)ccc2s1 | inconclusive: 89.1 µM [inhibitor, single point]
CCc1ccc2c(c1)NC(c1cccs1)=NC(c1ccc(F)cc1)=N2 | inconclusive: 56.2 µM [inhibitor, partial curve, poor fit]
Cc1cc(C)cc(S(=O)(=O)Nc2cccc(-c3ccc(N4CCOCC4)nn3)c2)c1 | inconclusive: 100 µM [inhibitor, single point]
COC(=O)c1ccc(OC)c(Cn2c(=O)n(Cc3ccccc3)c(=O)c3c2c2cc(OC)ccc2n3C)c1 | inconclusive: 89.1 µM [inhibitor, single point]

SMILES | Potency
CCN(Cc1cccs1)C(=O)CC1CC2CCC1C2 (stereo not given) | inactive
Cc1c(-c2cccs2)nc2ccccc2c1-c1ccccc1 | inactive
CCOC(=O)C1CCC(CN(Cc2ccc(Cl)cc2)S(=O)(=O)c2ccc(F)c(C(=O)Nc3cccc(F)c3)c2)CC1 (stereo not given) | inconclusive: 22.4 µM [inhibitor, full curve]
CC(Cl)C(=O)NC1(C#N)CCCCC1 (stereo not given) | inactive
Cc1ccc(-c2noc(CSc3nnc(Cc4ccccc4)n3-c3cccc(C)c3)n2)cc1 | inconclusive: 56.2 µM [inhibitor, partial curve, poor fit]
O=C(c1ccc(-n2cncn2)cc1)N1CCCC1c1nc2ccccc2[nH]1 (stereo not given) | inactive
Cc1noc(CSc2ccc(C(=O)N3CCc4ccccc43)cc2)n1 | inactive
CS(=O)(=O)CCC(C(=O)Nc1cccc(C(F)(F)F)c1)N1Cc2ccccc2C1=O (stereo not given) | inconclusive: 89.1 µM [inhibitor, single point]
Cc1nc2nc(SCC(=O)NCc3ccccc3Cl)nn2c(C)c1Cc1ccccc1 | inactive
CCCCN(CC)CCNC(=O)Cn1cc2c(n1)-c1c(oc(C(=O)N3CCCC3)c1C)CC2 | inconclusive: 35.5 µM [inhibitor, partial curve]
COC(=O)c1ccccc1NC(=O)c1c(NC(=O)c2ccco2)sc2c1CCC(C(C)(C)C)C2 (stereo not given) | inconclusive: 2.82 µM [inhibitor, full curve, poor fit]
C=CC[C@H]1CC=C[C@H](CC=C)[N+]1(C)C | inactive
O=C1Cc2cc(-c3csc(NC4CCCCC4)n3)cc3c2N1CCC3 | inconclusive: 44.7 µM [inhibitor, partial curve, poor fit]
CCCCn1cc(S(=O)(=O)c2ccc(CC)cc2)c(=O)c2cc(F)c(N3CCOCC3)cc21 | inconclusive: 50.1 µM [inhibitor, partial curve, poor fit]
COc1ccc(S(=O)(=O)Nc2cc3c(cc2N2CCOCC2)n(C)c(=O)n3C)cc1 | inconclusive: 100 µM [inhibitor, single point]
COc1ccc(Cc2nc3ccc(C(=O)NCCCN4CCN(C)CC4)cc3o2)cc1 | inconclusive: 79.4 µM [inhibitor, single point]
COc1cccc(Cn2c(SCC(=O)N(C)c3ccccc3)nc3ccccc32)c1 | inconclusive: 89.1 µM [inhibitor, single point]
COc1cc(NC(=O)Cn2cnc3c2c(=O)n(C)c(=O)n3C)c(OC)cc1Cl | inconclusive: 89.1 µM [inhibitor, single point]
Cc1ccc(-c2nnc(Nc3ccc(OCC(N)=O)cc3)c3ccccc23)cc1S(=O)(=O)N(C)C | inconclusive: 70.8 µM [inhibitor, partial curve, poor fit]
O=C(O)c1cc(Nc2nc(-c3ccccc3)cs2)ccc1O | inactive
Cc1ccc(-n2ncc3c(N(CC(C)C)CC(C)C)ncnc32)c(C)c1 | inactive
CCN1CCC2(CC1)Oc1c(OC)cccc1C1CC(c3ccc4c(c3)OCCO4)=NN12 (stereo not given) | inconclusive: 35.5 µM [inhibitor, partial curve, poor fit]
COc1ccccc1Cn1c(SCC(=O)C(C)(C)C)nc2ccccc2c1=O | inconclusive: 89.1 µM [inhibitor, single point]
Clc1cccc(CSc2ccc(-c3cccs3)nn2)c1 | inconclusive: 89.1 µM [inhibitor, partial curve, poor fit]

SMILES | Potency
CCc1ccc(S(=O)(=O)Nc2cc3c(cc2N2CCOCC2)n(C)c(=O)c(=O)n3C)cc1 | inconclusive: 79.4 µM [inhibitor, partial curve, poor fit]
O=C(c1cnc(N2CCCCC2)c2ccccc12)N1CCN(c2cccc(Cl)c2)CC1 | inconclusive: 89.1 µM [inhibitor, single point]
Cc1ccc(-c2noc(CSc3nnc(C4CC4)n3-c3ccccc3)n2)cc1 | active: 89.1 µM
Cc1c(C(=O)Nc2ccc(F)c(F)c2)oc2ccc(S(=O)(=O)N3CCC4(CC3)OCCO4)cc12 | inactive
O=C1OC2OCCCC2C1Nc1ccc(I)cc1 (stereo not given) | inactive
COc1ccccc1CNC(=O)c1cnc2c(-c3ccccc3)c(C)nn2c1C | inconclusive: 89.1 µM [inhibitor, single point]
Cc1c(-c2ccccc2)oc2c(C(=O)N3CCN(Cc4ccccc4)CC3)cccc2c1=O | inconclusive: 89.1 µM [inhibitor, single point]
Cc1sc2c(c1C)c(=O)n(CCc1ccccc1)c(=O)n2Cc1ccc(F)cc1 | inconclusive: 79.4 µM [inhibitor, partial curve, poor fit]
CCCCc1ccc(NC(=O)CC2CCCCC2)cc1 | inactive
CCc1ccccc1N(C)C(=O)c1nn(C)c2c1CSc1ccccc1-2 | inactive
CCOc1ccc(CCNC(=O)c2noc(C)c2Cn2nc(C)cc2C)cc1OCC | inactive
O=C(COc1cccc(Cl)c1)N1CCC(c2nc3ccccc3s2)CC1 | inactive
CC(C)CN1CCC(CN2CCOCC2)CC1 | inactive
Cc1ccc(OCCSc2nc3ccccc3n2CC(=O)N2CCCCC2)c(C)c1 | inconclusive: 89.1 µM [inhibitor, single point]
CC(Sc1cccc2cccnc12)C(=O)NC(=O)NC1CCCC1 (stereo not given) | inactive
Cc1ccc(CC(=O)N(Cc2nc(-c3ccccc3)no2)C2CCCCC2)cc1 | active: 79.4 µM
CCOC(=O)c1cc2c(=O)n3ccccc3nc2n(C(C)C)c1=NC(=O)c1c(-c2c(F)cccc2Cl)noc1C | inconclusive: 100 µM [inhibitor, single point]
CN(C)c1ccc(C(=O)NCc2ccc3c(c2)CCN3C(=O)c2ccc(Cl)cc2)cc1 | inconclusive: 89.1 µM [inhibitor, partial curve, poor fit]
COc1ccc(OC)c(NC(=O)C2CCCN(c3ccc4nncn4n3)C2)c1 (stereo not given) | inactive
Cc1ccc(N(CC(=O)N2CCN(c3cccc(C)c3C)CC2)S(=O)(=O)c2c(C)nn(C)c2C)cc1 | inconclusive: 79.4 µM [inhibitor, partial curve, poor fit]
COc1ccccc1CCNC(=O)c1csc2ccccc12 | inactive
CCSc1nc2sc3c(c2c(=O)n1-c1ccc(C)c(Cl)c1)CCN(C(C)=O)C3 | inconclusive: 79.4 µM [inhibitor, partial curve, poor fit]
